# The campaign covered roughly 420,000 compounds. About 64,000 (15%) were called active. The shares of active, inactive and inconclusive entries below differ from those in the screen. Calls follow the shape of the dose curve; as a rule, active = well fitted inhibition curve with a large enough effect; inconclusive = small, poorly fitted or top-dose-only effect; inactive = flat fitted curve, though single readings scatter. No potency is given beside an inconclusive call; the fits are too rough.
# Assay: qHTS for Inhibitors of human tyrosyl-DNA phosphodiesterase 1 (TDP1): qHTS in cells in absence of CPT; also: nearly all actives have a fitted effect of over 55% in size
# Settings: DT40 Tdp1-/- hTDP1 cells, no CPT, ATP luminescence, 48 h; activity change, negative = growth inhibition: at 46.2 µM (top of the series) unless noted
# How it was run: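 Growth of hTDP1-complemented DT40 Tdp1-knockout cells is measured by ATP luminescence after at least 48 hr compound exposure at 37 °C, with DMSO substituting for the 20 nM CPT used in the parallel screen.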
# % is scaled to controls: 0 for no effect and ±100 for the full control effect; potency is read from the fitted curve at half-maximal effect; tags tell the direction and shape of the fitted curve.
Compound,Potency,"activity change, negative = growth inhibition"
CCCCCCN=C(C)c1c(O)n(CCCC)c(=O)[nH]c1=O,"inconclusive [inhibitor, partial curve]",–
COC(=O)C1=C(c2ccc(-c3ccccc3)c(F)c2)C[C@@H]2CC[C@H]1N2C(=O)N1CCC(C)CC1,active: 4.61 µM,–
O=C(CCCC1=NS(=O)(=O)c2ccccc2N1)N1CCC2(CC1)OCCO2,inactive,–
COc1ccccc1Cc1c(-c2ccc(F)cc2)nc2cc(C)c(Br)c(C)n12,active: 23.1 µM,–
Cc1c(O)c(O)cc2c1CC=C1[C@]3(C)CC[C@]4(C)CC[C@@](C)(C(=O)O)CC4[C@]3(C)CC[C@]12C (some centres undefined),active: 4.11 µM,–
O=S(=O)(c1ccc(Cl)cc1)N1Cc2ccccc2-n2nncc2C1,"inconclusive [inhibitor, single point]",–
CC(=O)OC1(c2ccc(C)cc2)CN2CCC1c1ccccc12 (centres undefined),–,inconclusive: -33.7% [inhibitor]
COc1cccc(C2=NOC(C(=O)N3CCC4(CC3)OCCO4)C2)c1 (centres undefined),"inconclusive [inhibitor, single point]",–
CCCCn1c(N)c(N(CCOC)C(=O)CN2CC=C(c3ccccc3)CC2)c(=O)[nH]c1=O,"inconclusive [inhibitor, single point]",–
CC(C)(c1ccc(O)cc1)c1ccc(O)cc1,"inconclusive [inhibitor, single point]",–
O=C(Nc1cccc(C(F)(F)F)c1)C1CCCN1S(=O)(=O)c1cccc2nsnc12 (centres undefined),"inconclusive [inhibitor, single point]",–
Cc1ccc(C(=O)C2C(c3ccc(-c4ccccc4[N+](=O)[O-])o3)NC(=O)NC2(O)C(F)(F)F)cc1 (centres undefined),"inconclusive [inhibitor, single point]",–
CCOC(=O)C(O)(c1ccc(N(C)C(=O)c2ccc(Cl)c(Cl)c2)cc1)C(F)(F)F (centres undefined),active: 13 µM,–
O=c1[nH]c(O)c(N=Nc2ccc3c(c2)OCCO3)c(=O)[nH]1,"inconclusive [inhibitor, partial curve, poor fit]",–
CC(C(=O)c1ccc(Cl)cc1Cl)n1cncn1 (centres undefined),inactive,–
CCN1C(=O)N(CC)C(=O)C2(Cc3ccccc3N3CCN(c4ccccc4)CC32)C1=O (centres undefined),inactive,–
Cc1cc(C)c(NC(=O)C2CC3CCC2C3)c(C)c1 (centres undefined),"inconclusive [inhibitor, single point]",–
O=C1NC(=O)[C@]2(Cc3ccccc3N3CCN(c4ccccc4)CC32)C(=O)N1Cc1ccccc1 (some centres undefined),active: 23.1 µM,–
CCOc1ccc(-n2c(O)c(N=Nc3ccc([N+](=O)[O-])cc3)c(=O)[nH]c2=O)cc1,"inconclusive [inhibitor, single point]",–
CCc1cc(OC)c(C[C@@H](C)N)cc1OC,"inconclusive [inhibitor, partial curve, poor fit]",–
O=NN(CCCl)C(=O)NC1CCCCC1,"inconclusive [inhibitor, full curve, poor fit]",–
C#CCOc1ccc(OC)cc1C(c1c(C)[nH][nH]c1=O)c1c(C)[nH][nH]c1=O,"inconclusive [inhibitor, single point]",–
CCOc1ccc(-c2nc3cc(NC(=O)COc4cccc(C)c4)ccc3o2)cc1,active: 16.4 µM,–

Compound,Potency,"activity change, negative = growth inhibition"
CN1CC2CN(Cc3ccccc3)S(=O)(=O)C2C1 (centres undefined),inactive,–
CCC(=NCCN1CCOCC1)c1c(O)n(C2CCCCC2)c(=O)[nH]c1=O,"inconclusive [inhibitor, single point]",–
CCCCn1c(O)c(C(=O)/C=C/c2ccc3c(c2)OCO3)c(=O)[nH]c1=O,"inconclusive [inhibitor, single point]",–
CCN(CC)C(=O)c1ccc2c(c1)C1C=CCC1C(C(=O)O)N2 (centres undefined),–,inconclusive: -31% [inhibitor]
Cc1ccc2nc(NC(=O)c3cccn(Cc4ccc(Cl)cc4)c3=O)sc2c1,inactive,–
Cc1ccc(S(=O)(=O)N(C)C[C@@H]2OCc3ccccc3-c3c(n(C)c4ccccc34)C(=O)N([C@H](C)CO)C[C@@H]2C)cc1,"inconclusive [inhibitor, single point]",–
Cc1c(C(=O)N2CCC3(CC2)OCCO3)sc2ncnc(N3CCN(c4ccccn4)CC3)c12,active: 16.4 µM,–
CCn1cc(CN2CCCC(C(=O)c3cccc(OC)c3)C2)c(C)n1 (centres undefined),inactive,–
CCC(=O)O[C@](Cc1ccccc1)(c1ccccc1)[C@H](C)CN(C)C,active: 38.2 µM,–
CN(C)c1ccc(/C=C/C=C2/C(=O)NC(=O)N(c3ccccc3)C2=O)cc1,active: 4.11 µM,–
CC(C)OP(=O)(OC(C)C)C(O)c1cccnc1 (centres undefined),inactive,–
Cn1c(=O)c2c(nc(-c3ccc(N(CCCl)CCCl)cc3)n2C)n(C)c1=O,active: 25.9 µM,–
O=C(NC1CCCCC1)c1ccc(CSc2nc3ccncc3n2Cc2ccc(F)cc2)cc1,"inconclusive [inhibitor, single point]",–
CCOP(=S)(OCC)Oc1ccc2c(C)c(Cl)c(=O)oc2c1,active: 6.51 µM,–
Cc1ccc(Cl)cc1NC(=O)N(Cc1ccc2c(c1)OCO2)C1CCN(Cc2ccccc2)CC1,active: 13 µM,–
CN1CSC(=S)N(C)C1,active: 4.61 µM,–
CC(C)CCn1c(N)c(C(=O)OCC2CCCO2)c2nc3ccccc3nc21 (centres undefined),"inconclusive [inhibitor, single point]",–
CCC(=NCCC1=CCCCC1)c1c(O)[nH]c(=O)[nH]c1=O,–,inconclusive: -36.9% [inhibitor]
CC(C)[C@]1(NC(=O)[C@@H]2C=C3c4cccc5[nH]cc(c45)C[C@H]3N(C)C2)O[C@@]2(O)C3CCCN3C(=O)[C@H](Cc3ccccc3)N2C1=O (some centres undefined),"inconclusive [inhibitor, partial curve, poor fit]",–
c1ccc(C(c2ccccc2)c2cccnc2)cc1,"inconclusive [inhibitor, single point]",–
CCOC(=O)c1c(C)[nH]c(C)c1S(=O)(=O)N1CCC(C(=O)N2CCN(c3ccc(Cl)cc3)CC2)CC1,"inconclusive [inhibitor, single point]",–
C=C1CCN([C@@H](CC(C)C)C(=O)Nc2ccc(OC)cc2)S(=O)(=O)c2ccccc21,active: 23.1 µM,–
COc1ccc(CC(=O)NC(=S)NNC(=O)COc2c(C)cccc2C)cc1,active: 16.4 µM,–

Compound,Potency,"activity change, negative = growth inhibition"
CC(=NCCC1=CCCCC1)c1c(O)n(-c2ccccc2)c(=O)[nH]c1=O,"inconclusive [inhibitor, single point]",–
Clc1cccc(NC2=NCCS2)c1,inactive,–
COc1nc2ccccc2nc1N1CCN(C)CC1,inactive,–
N#Cc1ccc(NC(=S)N2Cc3ccccc3-n3nncc3C2)cc1,"inconclusive [inhibitor, single point]",–
Cc1ccc2c(n1)Oc1ccc(C(C)C(=O)OCC(=O)N(C)C)cc1C2 (centres undefined),"inconclusive [inhibitor, partial curve]",–
CC1CN1P(=O)(Oc1ccc2ccccc2c1)N1CC1C (centres undefined),"inconclusive [inhibitor, single point]",–
Cn1c(=O)n(C)c2cc(CNCCc3ccc(F)cc3)ccc21,active: 25.9 µM,–
Cc1cc(/C=C2\C(=O)NC(=O)N(c3ccc(Cl)cc3)C2=O)c(C)n1-c1sc2c(c1C#N)CCCC2,"inconclusive [inhibitor, single point]",–
COC(=O)C(O)(c1ccc(NC(=O)NC2CCCCC2)cc1)C(F)(F)F (centres undefined),"inconclusive [inhibitor, partial curve, poor fit]",–
Cc1ccc(NC(=O)Cn2cc(C(=O)c3ccccc3)c3ccccc32)cc1,"inconclusive [inhibitor, single point]",–
COc1ccc(S(=O)(=O)NCc2ccc(C(=O)N3CCC4(CC3)OCCO4)cc2)cc1,"inconclusive [inhibitor, partial curve]",–
CC(=O)O[C@H]1C(=O)[C@@]2(C)C([C@H](OC(=O)c3ccccc3)[C@]3(O)C[C@H](O)C(C)=C1C3(C)C)[C@]1(OC(C)=O)CO[C@@H]1C[C@H]2O (some centres undefined),active: 5.8 µM,–
CS(=O)(=O)c1ccc(C2=C(CNC(=O)c3cccnc3)[C@H]3CC[C@@H](C2)N3Cc2ccco2)cc1,inactive,–
CCOC(=O)N(c1ccccc1)P1(=S)OCCO1,"inconclusive [inhibitor, single point]",–
CCC(=NCc1ccco1)c1c(O)n(C)c(=O)n(C)c1=O,"inconclusive [inhibitor, partial curve]",–
COc1ccc(/C=N/N=C(/N)N[N+](=O)[O-])c(OC)c1,"inconclusive [inhibitor, partial curve]",–
CCC(=O)c1cc(F)c(N2CCN(CC)CC2)cc1C,–,inconclusive: -30.3% [inhibitor]
O=C(O)C1C2CC3CC(C2)CC1(n1ncc(N2CCC4(CC2)OCCO4)c(Cl)c1=O)C3 (centres undefined),inactive,–
CN(Cc1ccccc1)C(=C(Cl)Cl)/C(=C1/NCCN1Cc1ccc(Cl)nc1)[N+](=O)[O-],"inconclusive [inhibitor, single point]",–
Cc1cccc(-c2nc(CN3C(=O)CN=C(c4ccccc4)c4ccccc43)c(C)o2)c1,"inconclusive [inhibitor, single point]",–
O=S(=O)(c1ccccc1)N1CC1c1ccccc1 (centres undefined),inactive,–
N#CC1=C(N)Oc2c(c(=O)oc3ccccc23)C1c1ccccc1OC(=O)c1cccs1 (centres undefined),active: 23.1 µM,–
O=C1NCN(c2ccccc2)C12CCN(C(c1cc3ccccc3o1)c1nnnn1Cc1ccccc1)CC2 (centres undefined),"inconclusive [inhibitor, single point]",–

# From PubChem BioAssay AID686978 (National Center for Advancing Translational Sciences (NCATS), 2013)
